Here are results for 153 variants from a collection of fitness landscapes (doi:10.1016/j.celrep.2020.107928).

The chains are these.
B1: Caulobacter ParB omega fusion; a variant is named by its letters at X, in order, B8GW30 (parent)
chain: MESVVVGEPGMSEGRRGLGRGLSALLGEVDAAPAQAPGEQLGGSREAPIEILQRNPDQPRRTFREEDLEDLSNSIREKGVLQPILVRPSPDTAGEYQIVAGERAWRAAQRAGLKTVPIMVRELDDLAVLEIGIIENVQRADLNVLEEALSYKVLMEKFERTQENIAQTIGKSXSHVANXMRLLXLPDEVQSYLVSGELTAXHARAIAAAADPVALAKQIIEGGLSVRETEALARKAPNLSAGKSKGGRPPRVKDTDTQALESDLSSVLGLDVSIDHRGSTGTLTITYATLEQLDDLCNRLTRGI

In all, about 81,000 sequences were measured (“one-hybrid fitness for binding parS DNA”: median about -0.17, highest 2% from about 0.51 on). The list shows a part of the results.

The test covers variants of B1. Nature of the test: one-hybrid fitness for binding parS DNA (scaled: cognate 1, non-cognate 0); higher = stronger binding. As to conditions: with parS DNA site. The gist of the method:
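Selection: bacterial one-hybrid in E. coli USO, HIS3 reporter with the site 19 bp from the promoter, 48 hours at 37°C on M9-minus-histidine plus 0.1 mM IPTG and 5 mM 3-AT. Libraries were Caulobacter ParB with four randomised specificity codons, sequenced on Illumina before and after selection. Fitness is the rescaled log change in variant-to-wild-type read ratio, anchored to the cognate and non-cognate sites.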
For DIGR, the “one-hybrid fitness for binding parS DNA” value is ≤ 0.2.
With DDYV, the “one-hybrid fitness for binding parS DNA” value was ≤ 0.2.
With DPPG the figure was ≤ 0.2.
For PITD the value was ≤ 0.2; for RFMM, 0.275.
Regarding GWNC, the “one-hybrid fitness for binding parS DNA” value was ≤ 0.2.
For LVRP the value was ≤ 0.2; for QPAQ, ≤ 0.2; for QCQS, ≤ 0.2.
On to QQCR, for which the “one-hybrid fitness for binding parS DNA” value was ≤ 0.2.
As for VASM, the “one-hybrid fitness for binding parS DNA” value is ≤ 0.2.
With TWNP the figure was ≤ 0.2; with EIFG, ≤ 0.2.
FPSD: the “one-hybrid fitness for binding parS DNA” value is ≤ 0.2.
For the variant TYKG, the “one-hybrid fitness for binding parS DNA” value is ≤ 0.2.
For PNPK the value was ≤ 0.2; for PNNI, ≤ 0.2; for QCAL, ≤ 0.2.
For LWCG the value was ≤ 0.2; for ALNM, ≤ 0.2; for RWRP, ≤ 0.2.
With CNWV the figure was ≤ 0.2; with VNQF, ≤ 0.2; with TTMN, ≤ 0.2.
Take VDMY: the “one-hybrid fitness for binding parS DNA” value was ≤ 0.2.
With GPKG the figure was ≤ 0.2; with SLQG, ≤ 0.2; with TFFS, ≤ 0.2.
Regarding QAIG, the “one-hybrid fitness for binding parS DNA” value is ≤ 0.2.
For CRNP the value was 0.273; for GHVY, ≤ 0.2.
With VASN the figure was ≤ 0.2; with SGRL, ≤ 0.2.
For DYNL the value was ≤ 0.2; for HYPR, ≤ 0.2; for QQPK, ≤ 0.2.
On to PMWC, for which the “one-hybrid fitness for binding parS DNA” value was ≤ 0.2.
Regarding WDVW, the “one-hybrid fitness for binding parS DNA” value is ≤ 0.2.
As for WNFR, the “one-hybrid fitness for binding parS DNA” value was ≤ 0.2.
With IPPY the figure was ≤ 0.2; with MRTK, ≤ 0.2; with QVLG, ≤ 0.2.
For GTGY the value was ≤ 0.2; for AVSC, ≤ 0.2.
With GHEC the figure was ≤ 0.2.
On to RMQN, for which the “one-hybrid fitness for binding parS DNA” value turned out to be 0.501.
With MMVW the figure was ≤ 0.2; with ARLP, ≤ 0.2; with DDWG, ≤ 0.2.
For AHKW the value was ≤ 0.2; for PITQ, ≤ 0.2.
For PLEK the value was ≤ 0.2.
As to LIVF, the “one-hybrid fitness for binding parS DNA” value was ≤ 0.2.
With WTNY the figure was ≤ 0.2; with LYLA, ≤ 0.2; with AGRV, ≤ 0.2.
Consider DNYG, for which the “one-hybrid fitness for binding parS DNA” value was ≤ 0.2.
For YVQW the value was ≤ 0.2.
For AIGD the value was ≤ 0.2; for YRPR, ≤ 0.2; for AFPC, ≤ 0.2.
With PYNK the figure was ≤ 0.2; with PEAM, ≤ 0.2; with VPGT, ≤ 0.2.
Take LLRV: the “one-hybrid fitness for binding parS DNA” value is ≤ 0.2.
For RENN the value was ≤ 0.2.
With AIPG the figure was ≤ 0.2.
As for VLTN, the “one-hybrid fitness for binding parS DNA” value was ≤ 0.2.
For QDAS the value was ≤ 0.2.
With TSRN the figure was ≤ 0.2; with RPGM, ≤ 0.2.
As to CYKC, the “one-hybrid fitness for binding parS DNA” value is ≤ 0.2.
For LYSK the value was ≤ 0.2; for IKYS, ≤ 0.2.
Regarding KPDR, the “one-hybrid fitness for binding parS DNA” value is ≤ 0.2.
For KCRM the value was ≤ 0.2.
With LEHP the figure was ≤ 0.2.
With GTGT the figure was ≤ 0.2; with ITET, ≤ 0.2; with YATK, ≤ 0.2.
With SPHC, the “one-hybrid fitness for binding parS DNA” value is ≤ 0.2.
Turning to TSNY, the “one-hybrid fitness for binding parS DNA” value was ≤ 0.2.
Take ATTF: the “one-hybrid fitness for binding parS DNA” value was ≤ 0.2.
For SPTI the value was ≤ 0.2; for STIE, ≤ 0.2; for ITQI, ≤ 0.2.
With GHAV the figure was ≤ 0.2.
With QERY the figure was ≤ 0.2; with VLDS, ≤ 0.2.
For PTTA, the “one-hybrid fitness for binding parS DNA” value is ≤ 0.2.
VAAV: the “one-hybrid fitness for binding parS DNA” value is ≤ 0.2.
With DKSR the figure was ≤ 0.2; with AEPT, ≤ 0.2; with MPSV, ≤ 0.2.
For QTIK, the “one-hybrid fitness for binding parS DNA” value was ≤ 0.2.
For LQRM the value was ≤ 0.2; for QKIT, ≤ 0.2.
For LNPL the value was ≤ 0.2.
With VIDE the figure was ≤ 0.2.
With YFYC, the “one-hybrid fitness for binding parS DNA” value is ≤ 0.2.
With TIGM the figure was ≤ 0.2; with KGPW, ≤ 0.2; with WPYT, ≤ 0.2.
With RDGS the figure was ≤ 0.2; with QWVE, ≤ 0.2; with RPPR, ≤ 0.2.
Turning to RTRG, the “one-hybrid fitness for binding parS DNA” value stood at 0.908.
For ITPF the value was ≤ 0.2; for ATYD, ≤ 0.2; for PEKP, ≤ 0.2.
In the case of PHTW, the “one-hybrid fitness for binding parS DNA” value was ≤ 0.2.
With LRQQ the figure was ≤ 0.2; with PPKN, ≤ 0.2; with RKQF, ≤ 0.2.
For YFYR the value was ≤ 0.2; for LMDG, ≤ 0.2.
With SANT the figure was ≤ 0.2; with ACSR, ≤ 0.2.
With PHRN, the “one-hybrid fitness for binding parS DNA” value is ≤ 0.2.
With RWAL the figure was ≤ 0.2.
On to KLAE, for which the “one-hybrid fitness for binding parS DNA” value was ≤ 0.2.
For RWYS the value was 0.803.
With IHMT the figure was ≤ 0.2; with LWFG, ≤ 0.2.
For PDSG the value was ≤ 0.2; for IYAG, ≤ 0.2.
Consider PNRW, for which the “one-hybrid fitness for binding parS DNA” value was ≤ 0.2.
For TQHI the value was ≤ 0.2; for RPRK, ≤ 0.2; for CHCT, ≤ 0.2.
With TMLM the figure was ≤ 0.2; with ENQS, ≤ 0.2; with LKTV, ≤ 0.2.
For AMEE the value was ≤ 0.2.
For TFVT, the “one-hybrid fitness for binding parS DNA” value was ≤ 0.2.
With GTCS the figure was ≤ 0.2; with DVQG, ≤ 0.2; with REVC, ≤ 0.2.
For TVNR the value was ≤ 0.2; for FNCS, ≤ 0.2; for QCHS, ≤ 0.2.
With GTHW the figure was ≤ 0.2; with PSSQ, ≤ 0.2.
For VHPW, the “one-hybrid fitness for binding parS DNA” value is ≤ 0.2.
For TGIS the value was ≤ 0.2.
Consider RHFP, for which the “one-hybrid fitness for binding parS DNA” value was ≤ 0.2.
With TYDC the figure was ≤ 0.2; with SEFG, ≤ 0.2; with VLWK, ≤ 0.2.
Take HIYL: the “one-hybrid fitness for binding parS DNA” value is ≤ 0.2.
HSWC: the “one-hybrid fitness for binding parS DNA” value was ≤ 0.2.
With QVHY the figure was ≤ 0.2.
As for LGVG, the “one-hybrid fitness for binding parS DNA” value is ≤ 0.2.
